Measurements: US20240024383A1, “ENGINEERED PROBIOTIC COMPOSITIONS AND USES THEREOF” (priority 2020, published 2024)

Assay: Nitrocefin hydrolysis assay for β-lactamase activity in culture supernatants
Assay type: biochemical
Settings: 0.1 mM nitrocefin, absorbance at 486 nm
Source text: A L. lactis strain was generated that is able to inactivate β-lactam antibiotics in its surroundings by secreting a split enzyme that is encoded in a two-gene biosynthesis pathway. By splitting β-lactam degradation into a genetically unlinked trait the selective advantage conferred upon a single locus was removed, thereby limiting the possible spread of the engineered trait in the population through a single HGT event. To achieve this, a heterodimeric version of the TEM1 β-lactamase (spTEM1) that regains its activity when reconstituted in the extracellular environment was generated.
β-lactamase assay. Nitrocefin (BioVision) was dissolved in DMSO to make a 1 mM stock. It was added to samples bacterial culture supernatant in a clear-bottom 96-well plate to a final concentration of 0.1 mM. The plate was placed in a spectrophotometer SpectraMaX™ M5 (Molecular Devices) to read absorbance at 486 nm over time.

B1: SC-BLF-2: SpyCatcher fused to TEM1 β-lactamase fragment BLF2 with usp45 secretion signal (SEQ ID NO: 8) (protein)
chain: MKKKIISAILMSTVILSAAAPLSGVYAGAMVDTLSGLSSEQGQSGDMTIEEDS[about 80 residues not shown]GKATKGDAHIGGGGSGGGGSLLTLASRQQLIDWMEADKVAGPLLRSALPAGWFIADKSGAGERGSRGIIAALGPDGKPSRIVVIYTTGSQATMDERNRQIAEIGASLIKHW
In the case of B1, the “β-lactamase activity (nitrocefin hydrolysis)” value is reported as “do not display β-lactamase activity”.
